# Measurements as given in PubChem BioAssay AID686978 (National Center for Advancing Translational Sciences (NCATS), 2013).
# Screen size: about 420,000 compounds; about 64,000 (15%) were called active. The inconclusive results got no clear call from the source; some entries with a clear call stand among them for comparison. Calls come from the whole dose curve; as a rule, active = well fitted inhibition curve with a large enough effect; inconclusive = small, poorly fitted or top-dose-only effect; inactive = flat fitted curve, though single readings scatter. Potencies of inconclusive entries are left out as doubtful fits.
# Assay: qHTS for Inhibitors of human tyrosyl-DNA phosphodiesterase 1 (TDP1): qHTS in cells in absence of CPT; note: nearly all actives have a fitted effect of over 55% in size
# Conditions: DT40 Tdp1-/- hTDP1 cells, no CPT, ATP luminescence, 48 h; series mostly up to 46.2 µM
# Outline: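 Compound effects on proliferation are scored in DT40 Tdp1-/-;hTDP1 cells in the absence of CPT. ATP levels (CellTiter-Glo luminescence) are recorded after a ≥48 hr, 37 °C incubation.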
# Potency is the fitted concentration of half-maximal effect; tags give direction and shape of the fitted curve.
row,Compound,Potency
1,CN(c1ccccc1)c1nc(N)c([N+](=O)[O-])c(N2CCOCC2)n1,"inconclusive [inhibitor, single point]"
2,Cc1cccc(C(=O)OCC(=O)N2CCC(c3ccccc3)=N2)c1O,inactive
3,COc1ccccc1CNC(=O)c1ccc(NC(=O)N2CC(C)Sc3ccccc32)cc1 (stereo not drawn),active: 23.1 µM
4,COc1cccc(NC(=O)NCCC2=CCCCC2)c1,"inconclusive [inhibitor, single point]"
5,Cc1cccc(C(C#N)c2nc3ccccc3nc2C(F)(F)F)c1 (stereo not drawn),inactive
6,CCn1c(SCCOc2ccc(OC)cc2)nnc1C(CO)NC(=O)c1ccc(OC)cc1 (stereo not drawn),"inconclusive [inhibitor, partial curve]"
7,Cc1ccc2c(c1)-c1c(cnn1CC(=O)Nc1ccccc1N1CCN(C)CC1)CO2,"inconclusive [inhibitor, single point]"
8,COc1ccc(NC(=O)c2sc(SCc3ccccc3)nc2N)cc1,"inconclusive [inhibitor, single point]"
9,CCOc1ncccc1C(=O)OCC(=O)c1cccs1,inactive
10,Cn1ccnc1SCC(=O)c1ccc(C#N)cc1,"inconclusive [inhibitor, single point]"
11,O=C(Nc1ccc(S(=O)(=O)N2CCCC2)cc1)C1CCN(S(=O)(=O)c2ccc(F)cc2)CC1,active: 18.4 µM
12,CCc1cc(-c2cnnn2Cc2ccccc2)ccc1-c1cn(CC(C)C)nn1,active: 10.3 µM
13,Cc1cccc(C)c1NC(=O)C1CCCN(S(=O)(=O)c2c(C)noc2/C=C/N(C)C)C1 (stereo not drawn),"inconclusive [inhibitor, single point]"
14,Cc1nc2cnc(N(C)C)nc2n(-c2ccccc2)c1=O,inactive
15,Cc1ccc(Cn2nnc3c(=O)[nH]c(C4CCCN(C(=O)Nc5ccc(F)cc5)C4)nc32)cc1 (stereo not drawn),active: 18.4 µM
16,CC(C)(C)NC(=O)CSc1nnc(NC(=O)CCc2ccccc2)s1,inactive
17,N#Cc1cc2cc3c(cc2nc1N1CCOCC1)OCO3,"inconclusive [inhibitor, partial curve]"
18,COc1ccc(S(=O)(=O)NCC(c2ccco2)S(=O)(=O)c2ccc(C)cc2)cc1C (stereo not drawn),"inconclusive [inhibitor, single point]"
19,CCOc1cc(NC(=O)Nc2ccc(F)cc2)c(OCC)cc1NC(=O)CC,inactive
20,CCOc1cc(C(=O)Nc2cc(OC)cc(OC)c2)ccc1OCC(=O)N1CCOCC1,"inconclusive [inhibitor, single point]"
21,Cc1nc(SCC(=O)NCC2CCCO2)c2cc(-c3ccccc3)sc2n1 (stereo not drawn),"inconclusive [inhibitor, single point]"
22,Cc1c(C(=O)Nc2ccc(Cl)cc2)c2ccccn2c1C(=O)c1ccc([N+](=O)[O-])cc1,"inconclusive [inhibitor, partial curve, poor fit]"
23,CCOc1ccc(-n2cnc3scc(-c4ccc(OC)c(OC)c4)c3c2=O)cc1,"inconclusive [inhibitor, single point]"
24,CC(=O)/C(C#N)=C1\NC(=O)C(Cc2ccccc2Cl)S1 (stereo not drawn),"inconclusive [inhibitor, partial curve]"
25,O=C(N/N=C/c1ccncc1)c1ccc(COc2cccc3cccnc23)cc1,"inconclusive [inhibitor, partial curve]"

row,Compound,Potency
1,O=C1OC(c2ccccc2)(c2ccc3cc(O)ccc3c2)c2ccccc21 (stereo not drawn),"inconclusive [inhibitor, single point]"
2,COc1ccccc1CN1CCN(C(c2ccccc2)c2ccccc2)CC1,"inconclusive [inhibitor, single point]"
3,O=C(CSc1ncccn1)N1CCN(C(c2ccccc2)c2ccccc2)CC1,"inconclusive [inhibitor, single point]"
4,CS(=O)(=O)N1N=C(c2ccccc2)CC1c1ccc2c(c1)OCO2 (stereo not drawn),"inconclusive [inhibitor, partial curve]"
5,CC1=C/C(=N\OC(=O)/C=C/c2ccccc2)C(C)=CC1=O,"inconclusive [inhibitor, partial curve, poor fit]"
6,CCOC(=O)N/N=C/c1cccc(Cl)c1Cl,"inconclusive [inhibitor, single point]"
7,O=c1c2ccccc2nc(SCc2nnc(-c3ccccc3Br)o2)n1-c1ccccc1,"inconclusive [inhibitor, partial curve]"
8,Cc1cc(C(=O)COc2ccc(C#N)cc2)c(C)n1C1CC1,active: 18.4 µM
9,NC(=O)C1CCN(CC(=O)Nc2ccccc2Sc2ccc(Cl)cc2)CC1,"inconclusive [inhibitor, single point]"
10,Cc1ccc(-c2noc(-c3cccnc3NCc3ccc(Cl)cc3)n2)cc1,inactive
11,Cc1ccc(-c2nc3scc(CCNS(=O)(=O)c4ccc(C)c(C)c4)n3n2)cc1,active: 20.6 µM
12,N#Cc1cccc(NC(=O)N2CC[C@@]3(CCCNC3)C2)c1,inactive
13,NS(=O)(=O)c1ccc(CCNc2ncnc3sccc23)cc1,active: 5.8 µM
14,COc1ccc(OC)c(NC(=O)c2cc(S(=O)(=O)NCc3ccco3)ccc2F)c1,"inconclusive [inhibitor, single point]"
15,COc1ccccc1NC(=S)N(Cc1ccccc1)Cc1cccnc1,inactive
16,CCC1C(C#N)=C(SC)NC2=C1C(=O)CC(C)(C)C2 (stereo not drawn),inactive
17,CC(=O)c1c(C)[nH]c(C(=O)OCC(=O)c2ccc3c(c2)NC(=O)CO3)c1C,"inconclusive [inhibitor, single point]"
18,O=C(Nc1ccc(-c2nc3ccc(NC(=O)c4cccs4)cc3[nH]2)cc1)c1cccs1,active: 1.64 µM
19,COc1cccc(C(=O)N2CCC[C@H]2C(=O)N2CCC[C@H]2C(=O)N[C@@H](C)c2ccccc2)c1,inactive
20,CCOC(=O)c1cc(-c2ccc(C)cc2)n(CCC(=O)NCc2ccccc2)c1C,"inconclusive [inhibitor, single point]"
21,CC(Oc1ccc(F)cc1)c1ccnc2nc(/N=C/N(C)C)nn12 (stereo not drawn),inactive
22,COCCCn1c(=O)c2sccc2n(Cc2ccc(C)cc2)c1=O,inactive
23,CC1(C)Cc2c(c(N3CCOCC3)nc3sc(C(=O)Nc4cccc(Cl)c4)c(N)c23)CO1,"inconclusive [inhibitor, partial curve]"
24,O=C(Nc1nnc(-c2cccs2)o1)c1cccc(F)c1,active: 7.31 µM
25,Cc1cc(C)cc(-n2ncc3c2CCCC3NC(=O)C2(C(N)=O)CC2)c1 (stereo not drawn),"inconclusive [inhibitor, single point]"

row,Compound,Potency
1,COc1ccc(NC(=O)CC23CC4CC(C2)CC(n2nnc(C)n2)(C4)C3)cc1,"inconclusive [inhibitor, partial curve]"
2,Cc1ccc(-c2noc(CN(C(=O)CCCN3C(=O)c4ccccc4C3=O)C(C)C)n2)cc1,"inconclusive [inhibitor, partial curve]"
3,CN(C)c1ccc(NC(=O)c2sc(SCC(=O)Nc3ccc(Br)cc3)nc2N)cc1,inactive
4,CC(C)c1nnc(NC(=O)c2sc3ccccc3c2Cl)s1,inactive
5,CCO[C@@H]1OC(C(=O)N2CCN(Cc3ccccc3)CC2)=C[C@H](c2ccc(Br)cc2)[C@H]1CCCO,active: 23.1 µM
6,O=[N+]([O-])c1ccc(N2CCN(C(=S)Nc3ccccc3)CC2)cc1,"inconclusive [inhibitor, full curve]"
7,Cc1cc(C)[n+](C)c2ccccc12,inactive
8,COc1cccc(NC(=O)COc2ncnc3sc(C)c(C)c23)c1,inactive
9,CN(C(=O)c1ccc(NC(=O)Cc2cccc(NC(=O)C3CCCN(C(=O)C4CCC4)C3)c2)cc1)C1CCCC1 (stereo not drawn),"inconclusive [inhibitor, full curve, poor fit]"
10,Cc1cccn2c(=O)c(/C=C(\C#N)C(=O)NCc3ccco3)c(N3CCCC(C)C3)nc12 (stereo not drawn),"inconclusive [inhibitor, single point]"
11,COc1ccccc1NC(=O)CN1CCN(CC(=O)Nc2ccc(OCc3ccccc3)cc2)CC1,active: 16.4 µM
12,COCc1cc(C)nc2sc(C(=O)NCCO)c(-n3cccc3)c12,inactive
13,N#Cc1cccc(NC(=O)c2cc(C3CCCCN3S(=O)(=O)c3ccccc3)on2)c1 (stereo not drawn),active: 16.4 µM
14,O=C(CSc1ccc2ccccc2c1)Nc1nc2ccccc2[nH]1,"inconclusive [inhibitor, single point]"
15,O=C(NCC(c1ccc(F)cc1)N1CCOCC1)c1ccc(OCc2ccccc2)cc1 (stereo not drawn),active: 20.6 µM
16,CCOc1cc(/C=N/NC(=O)C(=O)NCc2cccnc2)ccc1O,inactive
17,Cc1nc2ccc(S(=O)(=O)NCC(=O)NCCc3ccc(Cl)cc3)cc2s1,inactive
18,COc1ccc2cc(S(=O)(=O)c3ccccc3F)c(=O)oc2c1,"inconclusive [inhibitor, partial curve, poor fit]"
19,Cn1nc(C(F)(F)F)c(C(=O)Nc2cccc(C(F)(F)F)c2)c1SCc1ccc(Cl)cc1,"inconclusive [inhibitor, single point]"
20,Cn1c(SCc2ccc(F)cc2Cl)nc2ccccc2c1=O,active: 14.6 µM
21,Cc1cc(C)c(NC(=O)c2cc(CN3CCOCC3)on2)c(C)c1,inactive
22,CCc1nc2c(OCCOc3ccccc3)cccn2c1N(C)C(=O)c1ccc(C)cc1,"inconclusive [inhibitor, single point]"
23,COc1cccc(CNC(=O)[C@@H]2CCCN2C(=O)OC(C)(C)C)c1,inactive
